In all, about 340,000 compounds went through this assay and about 6,900 (2%) were called active. No stated cut-off is given here; in the data, active means inhibition above about 30%; inactive means below that, where a call was filed. This is a selection; strong and weak results do not stand in their true shares. The source gives no active or inactive call for entries shown without one.
target: D(2) dopamine receptor (Homo sapiens) (UniProt P14416); assay: HTS Assay for Allosteric Antagonists of the Human D2 Dopamine Receptor: Primary Screen for Antagonists; details: HEK293 TREx D2 cells, calcium flux, dopamine EC80; at 10 µM; stronger effect = higher value; further: 0% is about no effect
How it was run: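 Antagonism is scored as inhibition of an EC80 dopamine-evoked calcium signal in a force-coupled, tetracycline-inducible HEK293 T-REx D2 line, with compound present 180 s before agonist.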

Chain of UniProt P14416 (P14416 whole entry, looked up): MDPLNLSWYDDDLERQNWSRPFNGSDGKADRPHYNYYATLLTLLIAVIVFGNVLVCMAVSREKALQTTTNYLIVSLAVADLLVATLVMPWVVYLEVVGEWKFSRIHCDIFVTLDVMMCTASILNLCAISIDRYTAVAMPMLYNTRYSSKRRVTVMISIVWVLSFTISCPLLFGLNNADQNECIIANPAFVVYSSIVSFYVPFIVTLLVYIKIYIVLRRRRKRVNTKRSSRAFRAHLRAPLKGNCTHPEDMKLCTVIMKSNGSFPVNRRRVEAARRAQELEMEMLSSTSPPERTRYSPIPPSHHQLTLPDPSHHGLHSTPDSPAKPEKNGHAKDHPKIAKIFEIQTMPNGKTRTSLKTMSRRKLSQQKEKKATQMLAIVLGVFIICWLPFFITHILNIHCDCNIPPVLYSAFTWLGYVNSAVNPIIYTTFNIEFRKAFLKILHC

Compound | inhibition
COc1ccc(CCNC(=O)CN(c2ccccc2OC)S(=O)(=O)c2ccc(C)cc2)cc1 | -8.96%
COC(=O)c1c(NC(=O)c2cc(=O)c3ccc(C)c(C)c3o2)sc2c1CCCC2 | -3.93%
COCCCNC(=O)Cn1c(=O)n(Cc2ccc(C(=O)NCc3ccc(C)cc3)cc2)c(=O)c2ccccc21 | -8.23%
O=C(NCc1ccccc1Br)C1CCCN(C(=O)N2CCOc3ccccc32)C1 (stereo unspecified) | -15%
Cc1ccc(NC(=O)CSc2nc(C)c(Cc3ccccc3)c(=O)[nH]2)cc1 | 4.2%
COC(=O)c1ccc(NC(=O)CSc2nc3ccc(OC)cc3[nH]2)cc1 | 13.5%
COc1ccc(-c2cc3nc(-c4ccccc4)cc(C(F)(F)F)n3n2)cc1 | -0.387%
CCOc1ccc(NC(=O)CCC(=O)NNC(=O)COc2ccccc2C)cc1 | active: 36.3%
COc1ccc(CCNC(=O)Cc2c(C)c3c(cc(C)c4c(C)coc43)oc2=O)cc1 | 27.6%
CSc1ccc(CNC(=O)CCn2ccc3cc(S(=O)(=O)N4CCC(C)CC4)ccc32)cc1 | 4.41%
COc1ccc(N2CCN(C(=O)c3cnc(N4CCCC4)nc3C)CC2)cc1 | 0.945%
CC1=C(c2ccc(C)cc2)S(=O)(=O)N(Cc2ccc(C(=O)NCc3cccc(C)c3)cc2)C1=O | 0.178%
COc1ccccc1CNS(=O)(=O)c1ccc2[nH]c3c(c2c1)CCCCC3 | 1.98%
FC(F)(F)c1cccc(N2CCN(Cc3cccnc3)CC2)c1 | active: 75.8%
CCC(Sc1nc2ccccc2c2nc(CCc3c(C)n[nH]c3C)nn12)C(=O)Nc1ccc(F)cc1 (stereo unspecified) | -12%
Cc1c(Cl)cccc1NC(=O)N1CCC(CN2CCCC2)CC1 | 10.4%
COc1cccc(-n2nnc3c(sc4nc(C)cc(C)c43)c2=O)c1 | -9.27%
COc1ccc2oc(=O)c(-c3nc(-c4cc(OC)c(OC)c(OC)c4)no3)cc2c1 | 8.57%
CCN(CC)CCNC(=O)c1ccc(N2CCCCC2)c(NS(=O)(=O)c2ccc(C)cc2)c1 | active: 56.2%
O=C(CNS(=O)(=O)c1cccs1)N1CCN(c2ccccc2Cl)CC1 | -0.0896%
Cc1ccc(C(=O)N/N=C\C=C\c2ccccc2[N+](=O)[O-])cn1 | active: 46.8%
O=C(Cn1cc(SCc2cccc(F)c2)c2ccccc21)N1CCCC1 | 13.5%
Cc1cc2oc(C(=O)Nc3sc4c(c3C(=O)NCc3ccco3)CCC4)cc(=O)c2cc1C | 2.5%
Cc1ccc2c(CNCc3cccc(Cl)c3)c(C(=O)O)n(Cc3ccc(F)cc3Cl)c2c1 | 11.1%
Cc1ccc(C(=O)Nc2ccc3nc(SCC(=O)N4CCc5ccccc54)sc3c2)cc1 | 5.54%
CCOC(=O)c1c(C)[nH]c(C)c1S(=O)(=O)N1CCC(C(=O)N2CCN(c3cccc(C)c3)C(C)C2)CC1 (stereo unspecified) | 11.2%

Reference: PubChem BioAssay AID485344 (National Center for Advancing Translational Sciences (NCATS), 2010)
